# The list shows a part of the results. At the low end of the ranking the order means little.
# Target: SIX1-Q177R homeodomain (UniProt Q15475)
# Assay: universal protein binding microarray
# Settings: Universal all-10-mer PBM (8x60K, AMADID 030236), 300 nM GST-tagged protein, Alexa Fluor 488 anti-GST; buffer, salt, pH and temperature not stated; high values mean tight binding; most listed sequences are background and not binding sites; double strand, one strand shown
row,Sequence,binding signal [E-score]
1,CCTTGGCA,-0.105
2,CAAGGTCC,-0.111
3,TAATTTCA,-0.129
4,CTACGGAA,-0.191
5,AGGGTGAG,0.00777
6,CATCGACA,0.0318
7,CACGGCAA,0.173
8,CTGCACTC,0.0611
9,CTGTTCCC,-0.198
10,ACTGAGGG,0.0372
11,CTAAACTA,-0.18
12,CTAGACAC,0.393
13,AATAGGCG,0.0175
14,AGCGATTC,-0.0364
15,AAGTTCGC,-0.351
16,GCAAGTGA,-0.0531
17,ATCATCTC,-0.168
18,CTATGTGA,0.149
19,AAAATCGG,-0.166
20,GATCTCAC,-0.0725
21,AGTACCGG,0.0769
22,CATGCGCC,-0.0701
23,TGGGGTAA,0.26
24,ATGAGCGA,-0.331
25,CAAGTGGC,-0.0444

row,Sequence,binding signal [E-score]
1,CTCGAATA,-0.198
2,GGGGTGTA,0.486
3,CGTAGGCC,-0.0178
4,CCCTCGAG,0.0434
5,CAGCCAGC,-0.179
6,CATTGTCC,-0.143
7,GCTCCTTA,-0.0512
8,CGCGTAAG,-0.0139
9,CAGCGCAA,-0.0674
10,GTCTGCTA,-0.11
11,CGAATTCC,-0.101
12,ATTCCCAA,-0.179
13,ATGGTGAA,-0.137
14,CGGAGGAC,-0.0744
15,GAGAGGCC,-0.179
16,AGGGGCAA,-0.0561
17,TATGCCGA,0.118
18,CCTATACG,-0.213
19,CGTTATCC,0.0885
20,CATGAGTA,-0.0622
21,CCGCCGTA,0.164
22,AGGTGTTC,0.457
23,CAAGACAC,0.402
24,GTGCAAAC,0.0503
25,CGTGGGAG,0.0667

row,Sequence,binding signal [E-score]
1,ACCGTGAA,-0.149
2,CCGATTAC,0.216
3,GCGGGTCA,0.116
4,AACCGCTA,0.0752
5,ACAGGACT,-0.283
6,CATCTGAG,0.00416
7,ACTGCAAA,-0.234
8,ACGGGGCC,-0.161
9,ATGCGTGC,-0.029
10,GGGACACA,0.232
11,GCGCACGA,0.0269
12,CCCTAACG,-0.089
13,AATAGTAC,0.118
14,AAATGGGT,0.00197
15,AGTGGTCA,-0.202
16,CCGTTTCC,-0.234
17,ATTAAACA,0.0131
18,CCTCCAAA,0.122
19,AACCCATA,-0.00075
20,ACTACCCT,0.118
21,CCTCGCCA,0.102
22,CATACCGA,-0.0175
23,GGATCTCA,0.0399
24,TCACATGA,-0.115
25,ATGCTGGC,-0.103

row,Sequence,binding signal [E-score]
1,CCTGACTA,-0.0565
2,AGGGACGA,-0.128
3,TCACTCGA,0.00407
4,AAGAAGAA,-0.137
5,ACACTGGT,0.426
6,CGATAGTA,0.0157
7,AGTAATTG,0.00079
8,CCACAAGA,-0.0154
9,GCACTTCC,-0.24
10,GCTGATAC,0.243
11,CACTAGGC,0.221
12,ACTGAAGC,-0.24
13,GGTGTCAC,0.491
14,AGTCGCCC,-0.0295
15,CGGCAAAC,0.0301
16,TATAATAA,-0.0454
17,ACGGGTGG,0.136
18,GAGTCACA,0.26
19,CGAATTTC,-0.188
20,GATATACC,0.107
21,AATAAATA,-0.0122
22,CTCAGTAC,-0.0363
23,CACGACTA,0.22
24,ACCGCGAG,0.0789
25,ATTGTAAC,-0.00475

row,Sequence,binding signal [E-score]
1,ACTCCCAT,0.112
2,AACTAGCT,-0.102
3,ATGAATCC,-0.0709
4,ATGTTCTC,-0.168
5,CGGGATAA,-0.0428
6,CCCGATTA,0.166
7,CATGTCGA,-0.0764
8,GATCATGA,-0.114
9,CCTTGACC,0.172
10,AGCGGAGG,0.0793
11,GCAATTCA,-0.232
12,ACCGCCGT,0.0418
13,AACATTGG,-0.168
14,GCAGCTCC,-0.0733
15,CGAGGGAA,-0.0121
16,ATAGGTGA,-0.0739
17,CCGCACAG,0.000355
18,CCGGCTGA,0.124
19,AGTTCAAG,-0.185
20,AGCAGTCG,-0.136
21,ATTAGCAG,0.021
22,GTGCTCGA,0.00651
23,TAGTTTGA,-0.106
24,GGAAATCC,-0.149
25,ACGCCAGA,0.0534

row,Sequence,binding signal [E-score]
1,AGGGCACT,-0.0979
2,AGTCTACA,0.00161
3,CATACGCA,0.0651
4,TTCCAGAA,-0.0798
5,TCGGTGAA,-0.0747
6,ACTCTCAA,-0.0235
7,AGTGTGGC,0.193
8,CATAGACC,-0.0744
9,ATGCATCC,-0.228
10,ACAGAAAC,-0.0356
11,AACGCGGA,-0.0488
12,GACCGAGC,-0.157
13,CAGGAGCG,-0.117
14,CCCTTACA,0.281
15,GCTCTGCA,-0.0598
16,ATCCAAGA,-0.0372
17,CAGGCGTC,-0.0952
18,ACCACCTA,0.076
19,AACAAACG,-0.152
20,CCCAGTCA,0.105
21,CGCAGAAG,-0.0836
22,GCATGCAC,0.126
23,ATTTCGAA,-0.188
24,CACACCGC,0.412
25,GTACTCTA,0.0786

row,Sequence,binding signal [E-score]
1,GTCCGCAC,0.0282
2,AAAGTGAG,-0.167
3,CAGTTCAG,-0.0804
4,CCATCACG,-0.0894
5,AGGTACAT,-0.105
6,CTAGCTAC,-0.0175
7,AGAGCTGC,-0.137
8,GGACAGAC,-0.229
9,ACAGCATG,-0.137
10,GAGCTACC,-0.0589
11,GATTTGAA,-0.125
12,TGGAACAA,-0.239
13,CACTGTCC,0.0667
14,CCAGGTGA,-0.0302
15,CGTTATAA,0.0165
16,GACCACTA,-0.0418
17,TCAAAAAA,-0.219
18,TCCGCCAA,-0.195
19,AAGAGAAA,-0.163
20,ACGGTTGG,-0.0283
21,GCTGGTCC,-0.0481
22,CTCAACGC,-0.0419
23,AGAGTGAA,0.0429
24,AAGAACTC,-0.112
25,CGATTAAG,-0.17

row,Sequence,binding signal [E-score]
1,AAATCCTT,-0.129
2,AATGACAT,-0.257
3,AAACTCAC,-0.0698
4,CGTTGTAA,-0.131
5,GTATGCCA,0.0101
6,GATGCAAA,-0.131
7,CAACTCGA,-0.0261
8,TCTATACA,0.0974
9,AATCGCAC,-0.0327
10,GGTAGTAA,0.0612
11,CATCTAAC,-0.0832
12,GGATTACC,0.0148
13,GAGAGGCA,-0.0637
14,GCTGCCGA,-0.166
15,GAGTTGAA,-0.169
16,CTGCGTCA,-0.203
17,AGCGTTCC,-0.299
18,CTACACCA,0.474
19,CACAGAAA,0.0521
20,ATGCTTGG,-0.246
21,AATGAGCG,-0.145
22,ACTCAGGC,0.069
23,CCCACAGG,0.126
24,ATTTTTGG,-0.23
25,CAACGCAG,-0.0865

row,Sequence,binding signal [E-score]
1,ACGGTCCC,-0.19
2,ACTGCTAG,-0.133
3,ACAGGGCG,0.01
4,AGGCTCCC,-0.133
5,CCGGCCAC,0.0355
6,AGAGGATA,0.0593
7,CTCATGAG,-0.154
8,ATACCATG,0.133
9,ACTGAGCA,0.0705
10,CGCTAGTC,-0.137
11,ACATAAAG,-0.129
12,AATGGTTC,0.0384
13,AAATTTAG,-0.241
14,AACGCACT,-0.0915
15,AAGTTCGG,0.0775
16,AGCCTCCC,-0.194
17,AGGTGGAA,-0.0575
18,TGCCTGAA,-0.118
19,ATCTCCAC,-0.0994
20,AACCGAAT,-0.112
21,ACGGCTGA,-0.103
22,CTCGCGTC,0.144
23,CAGACCAG,-0.251
24,AAACAAAC,-0.165
25,CCGAGTCG,0.129

row,Sequence,binding signal [E-score]
1,GGAATTGA,-0.121
2,AGTCATCA,-0.164
3,AAATGTTG,-0.298
4,ACTGCCAA,0.117
5,GGTCCCAA,0.126
6,ATAAGTGA,-0.146
7,ATAAAAAG,-0.149
8,CGATGTAA,0.00147
9,ACTGCAGG,-0.132
10,GTTTCTTA,0.0667
11,CAACCCCG,0.173
12,CCTGGACA,0.105
13,ATAGCGAT,-0.201
14,GATGGTTA,0.029
15,GAGAGATC,0.0714
16,AACAGAAC,-0.317
17,CATGTGGA,-0.0707
18,CCTGAACA,0.254
19,GCTAATAA,-0.178
20,AGTGAAGG,0.0295
21,ATCAACCA,-0.125
22,CAAGCGTA,-0.0155
23,CGTCCCGC,0.0594
24,CCAACAGC,0.00592
25,TGATAGCA,0.00048

row,Sequence,binding signal [E-score]
1,ATGCTATC,-0.0679
2,CGATCTAA,-0.0786
3,GGGAACGA,-0.227
4,ATTAGATC,-0.106
5,AATACTCC,0.123
6,AGAAATCC,-0.242
7,GTAACTCA,-0.182
8,GTCTCTGA,0.026
9,AGCAGCTG,-0.0574
10,AACAACAA,-0.0903
11,CCGCGGAC,0.0698
12,TATCGGGA,-0.00825
13,AGACCGCC,-0.0689
14,GCAACTCA,-0.0632
15,CGTGCCCA,-0.063
16,GGACGGCC,-0.19
17,AATTCTCG,-0.18
18,GCGATTAC,0.027
19,ATCTGCCG,-0.0742
20,CATTGATC,-0.0127
21,AGTATAAC,0.0523
22,GGAAGCAA,-0.0927
23,ATCGATCA,-0.15
24,GAGAACTA,-0.179
25,CTGTTGCA,-0.0293

row,Sequence,binding signal [E-score]
1,CGTTTTGA,-0.146
2,ACCCCTCA,0.289
3,CTCGTGAC,0.103
4,GCAGATCA,0.057
5,ATCACTGG,-0.0168
6,CAATAGCA,0.0163
7,CGAGTAAG,-0.0511
8,AACCGTCG,-0.168
9,TAGATACA,0.017
10,TCTCCAAA,-0.0523
11,AGCTATCG,-0.151
12,GTGGTGGA,0.0238
13,CTGAAAGC,0.0547
14,AAATGTAT,-0.33
15,CGTTAATC,-0.19
16,CAGGTGGA,-0.0232
17,AAGCCGAG,-0.00128
18,AGAGTAGA,0.0276
19,CTCCCAAC,0.0302
20,AGAACCAT,-0.29
21,CGATACCA,0.321
22,CTAGCGAC,-0.166
23,CACAGCAC,0.0522
24,CTGATATC,-0.213
25,ACAGAACC,-0.171

row,Sequence,binding signal [E-score]
1,AAGTGGGC,-0.0756
2,ATAGAACG,-0.192
3,CCGTTAGA,-0.107
4,CATGAGGC,0.0598
5,CGAGCCCA,0.125
6,GCCATGGC,-0.258
7,CAATCCAG,-0.189
8,CGCTAGCA,-0.165
9,AGACAGGC,-0.257
10,AAACGTGA,-0.145
11,CAAAGGAC,-0.00451
12,CAAGACGA,-0.0687
13,CTCTGTGA,-0.0272
14,CAGTCGCG,0.00999
15,AACGGAAC,-0.198
16,CTCGATAA,-0.0572
17,CAATCATA,0.0387
18,GATCGAGC,-0.0139
19,ACTCCGAC,0.219
20,CCTGATAC,0.202
21,CAGTCTAG,-0.218
22,CTCAGACA,0.189
23,CAGAGGGG,0.193
24,AAAAACAA,-0.266
25,CAAGGAAC,-0.113

row,Sequence,binding signal [E-score]
1,AGTACCCC,0.287
2,CGGATGGC,-0.00405
3,ACTGTAGA,-0.0859
4,AAGGTGAT,-0.134
5,GGGTGCGA,0.181
6,AACTGGGT,0.0752
7,AATGTAGC,-0.206
8,CCATATAA,0.0149
9,AGCGTACC,0.0193
10,ACCTCACG,0.153
11,GGTAGATA,0.0686
12,ACCACGGG,0.138
13,CGTGTATA,0.367
14,AAGCATGG,-0.156
15,TCTCCTCA,-0.17
16,CAGGTAAG,-0.0841
17,CGTAAACA,0.173
18,CGATCGTA,0.00823
19,CACCCACG,0.275

# — article PMC10668032
